From PubChem BioAssay AID485344 (National Center for Advancing Translational Sciences (NCATS), 2010)
The whole screen tested about 340,000 compounds, of which about 6,900 (2%) were called active. Cut-off read from the data, not from the text of the source: active = inhibition above about 30%; inactive = below that, where a call was filed. Only a part is listed here, and it is no random draw. The source gives no active or inactive call for entries shown without one.

These compounds were tested against D(2) dopamine receptor (Homo sapiens) (UniProt P14416) (assay: HTS Assay for Allosteric Antagonists of the Human D2 Dopamine Receptor: Primary Screen for Antagonists). Details: HEK293 TREx D2 cells, calcium flux, dopamine EC80; at 10 µM; stronger effect = higher value.
Outline: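 HEK293 T-REx D2 cells, tet-induced, calcium dye no-wash. Cpd pintool add, 180 s kinetic, then EC80 DA, 180 s kinetic. Ca flux read.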
Note: 0% is about no effect.

Chain of UniProt P14416 (P14416 whole entry, looked up): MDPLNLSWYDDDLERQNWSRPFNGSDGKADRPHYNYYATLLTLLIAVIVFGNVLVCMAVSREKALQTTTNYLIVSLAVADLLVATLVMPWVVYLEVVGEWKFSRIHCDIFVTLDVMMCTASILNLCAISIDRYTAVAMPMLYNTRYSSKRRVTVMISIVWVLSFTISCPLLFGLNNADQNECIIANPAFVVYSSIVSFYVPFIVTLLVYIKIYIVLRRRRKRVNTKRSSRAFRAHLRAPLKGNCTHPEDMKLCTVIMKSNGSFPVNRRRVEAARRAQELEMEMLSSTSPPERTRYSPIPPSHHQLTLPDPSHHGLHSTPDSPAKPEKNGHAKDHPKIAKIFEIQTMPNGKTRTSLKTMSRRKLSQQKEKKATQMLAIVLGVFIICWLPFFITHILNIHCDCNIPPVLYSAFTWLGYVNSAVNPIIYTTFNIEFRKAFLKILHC

| Structure (SMILES) | inhibition |
| --- | --- |
| CN(C)c1ncc(C(=O)NCc2ccc(Cl)cc2)cn1 | 4.88% |
| COc1ccccc1NC(=O)C1=C(C)Nc2nc3ccccc3n2C1c1ccccc1Cl (centres undefined) | 0.834% |
| CC(C)Nc1nc(Cl)nc(NN(C)c2nc(N(C)C)nc(N(C)C)n2)n1 | active: 34.3% |
| CC(C)(C)C1CCc2c(sc(NC(=O)c3noc4c3CCCC4)c2C#N)C1 (centres undefined) | 1.48% |
| CC(=O)N1CCc2c(sc3c2c(=O)n(-c2ccccc2Cl)c(=O)n3Cc2cccc(C)c2)C1 | 2.93% |
| COc1ccccc1NC(=O)CSc1cn(CC(=O)N2CCCC2)c2ccccc12 | 1.23% |
| OCCN(Cc1nc(-c2ccc3c(c2)OCO3)no1)Cc1cccs1 | active: 38.8% |
| CCC1CCCCN1C(=O)CSc1nnc(-c2ccc(OC)c(OC)c2)o1 (centres undefined) | -14.3% |
| CCOC(=O)c1ccc(NC(=O)N2CC3CCCN3c3ccccc32)cc1 (centres undefined) | -12.9% |
| Cc1ccc2nc(-c3cccs3)c(Nc3ccc4c(c3)OCCO4)n2c1 | -10.3% |
| CC(=O)Nc1ccc(OC(=O)c2ccc(Cl)cc2)cc1 | active: 32.9% |
| O=C(Cn1cc(S(=O)(=O)N2CCCC2)c(S(=O)(=O)N2CCCC2)c1)Nc1ccc(F)cc1 | 2.84% |
| CCN(CC)S(=O)(=O)c1ccc2c(c1)N(CC(=O)NCCCN1CCN(c3ccc(OC)cc3)CC1)C(=O)CO2 | 26.5% |
| CCCS(=O)(=O)N1CCC(n2c(C)nc3cccnc32)CC1 | 3.87% |
| CCN(C(=O)CSc1nc2ccccc2n1CC(=O)N(C)C1CCCCC1)c1ccccc1 | -14% |
| CCOC(=O)c1cc(-c2ccccc2)n(CCC(=O)NCCc2ccccc2)c1C | 6.1% |
| CCc1ccc(C(=O)c2cn(CC(=O)Nc3cc(OC)ccc3OC)c3ccc(Cl)cc3c2=O)cc1 | -2.15% |
| COc1ccc(CNC(=O)c2cnc(N3CCCC3)nc2C)c(OC)c1 | -18.2% |
| Cc1ccc(NC(=O)CCC(=O)N2Cc3ccccc3Oc3ncccc32)cc1Cl | 5.81% |
| CCOC(=O)c1cnc2ccc(OC)cc2c1Nc1ccc(OCc2ccccc2Cl)cc1 | 11.6% |
| COc1ccccc1CNC(=O)C(NS(=O)(=O)c1ccc2c(c1)CCN2C(C)=O)C(C)C (centres undefined) | -5.3% |
| COc1ccc(-c2nc3sc(CCNC(=O)Cc4ccccc4)c(C)n3n2)cc1 | 12.2% |
| COc1ccc(C2=NS(=O)(=O)N(C)C(C(=O)NC(C)c3ccccc3)=C2)cc1 (centres undefined) | 3.89% |
| COc1ccc(C)cc1NC(=O)c1nnn(Cc2cccc(Br)c2)c1N | -15.5% |

| Structure (SMILES) | inhibition |
| --- | --- |
| Cc1ccc(-c2nc3c(c(=O)c4ccccc4n3C)c(=O)n2Cc2ccco2)cc1 | active: 35.6% |
| Cc1nn(C)c2c1c(-c1ccccc1)cc(=O)n2Cc1ccc(F)cc1 | 13.9% |
| COc1ccc(-n2cc(-c3ccc4c(c3)OCO4)n(CC(=O)Nc3cc(Cl)ccc3C)c2=O)cc1 | 2.9% |
| COc1ccc(-n2nc3ccc(NC(=O)c4cccc(OCCC(C)C)c4)cc3n2)cc1 | 7.75% |
| CCN1CCN(c2nc(-c3ccccc3Cl)nc3ccccc23)CC1 | active: 38.5% |
| CCOc1ccc(CNC(=O)C2CCN(c3nc4ccccc4nc3C(F)(F)F)CC2)cc1OC | 4.74% |
| CCc1c(C)sc2c1CCN(Cc1ccccc1C#N)C2c1ccccc1 (centres undefined) | 3.66% |
| CN1/C(=C\C(=O)C(F)F)C(C)(C)c2ccccc21 | active: 46.7% |
| CC1CC(=O)Nc2ccccc2N1C(=O)COc1cc(Cl)ccc1Cl (centres undefined) | active: 30.4% |
| CC1CCN(c2oc(-c3cccs3)nc2S(=O)(=O)c2ccccc2)CC1 | 1.8% |
| CCOC(=O)c1cnc2c(ccc3ccccc32)c1Nc1cccc(Cl)c1 | 7.76% |
| COc1ccc(CCNC(=O)c2cnc3sc(N4CCOCC4)nn3c2=O)cc1 | 2.74% |
| Cc1cccc(C)c1NS(=O)(=O)c1ccc2c(c1)[C@H]1C=CC[C@H]1[C@@H](c1ccc(Cl)cc1)N2 | 25.3% |
| CCn1c(CC2C(=O)Nc3ccccc32)nc2ccccc2c1=O (centres undefined) | 1.16% |
| CC1CCCCN1S(=O)(=O)c1cc2c(=O)nc3ccccn3c2cc1Cl (centres undefined) | 2.54% |
| CCOc1ccc(C2C(C(=O)Nc3ccccc3OC)=C(C)Nc3c(C(=O)Nc4cccc(C)c4)cnn32)cc1 (centres undefined) | -2.9% |
| O=C1CC(c2nnc(Cc3cccc(Cl)c3)o2)CN1c1ccccc1 (centres undefined) | 19% |
| COc1ccc(-n2c(=O)c3ccc(C(=O)NCc4ccc(C)cc4)cc3n(Cc3cccc(Cl)c3)c2=O)cc1 | -2.69% |
| Cc1ccc2c(c1)cc1c(=O)n(Cc3ccc(Cl)cc3)nc(C)n12 | 16.1% |
| COc1cccc(-c2cc(C(=O)Nc3ccc(Br)c(C)c3)[nH]n2)c1 | -3.08% |
| CCC1CN(C(=O)Nc2cccc(OC)c2)c2ccccc2O1 (centres undefined) | 7.85% |
| CC(=O)Nc1ccc(S(=O)(=O)NC2(C(F)(F)F)NC(=O)N(c3ccccc3F)C2=O)cc1 (centres undefined) | 9.74% |
| COc1ccc2c(c1)c1c(c(=O)n(-c3ccc(F)c(Cl)c3)c(=O)n1CC(N)=O)n2C | 7.94% |
| CCOc1ccc(-c2c(C)nn3c(C)c(C(=O)NCCc4ccccc4)cnc23)cc1OCC | -12% |

| Structure (SMILES) | inhibition |
| --- | --- |
| COc1cccc2c1cc1c(=O)n(CC(=O)O)nc(C)n12 | -8.53% |
| CCOc1ccc(Nc2sc(C(=O)c3ccc4c(c3)OCO4)c(N)c2S(=O)(=O)c2ccc(C)cc2)cc1 | -0.764% |
| COc1ccc(-c2cc(C(F)(F)F)nc(NCc3ccc(Cl)cc3)n2)cc1 | -6.38% |
| Cn1nc(C(=O)N2CCN(c3ccc(Cl)cc3)CC2)c2c1-c1ccccc1S(=O)(=O)C2 | -23.3% |
| O=C(Nc1cc(-c2nc3ccccc3o2)ccc1Cl)c1ccc(Br)o1 | -7.49% |
| COCCCNCCOc1ccccc1-c1ccccc1 | active: 92.5% |
| COc1cc(-c2noc(-c3ccc(N(C)C)c([N+](=O)[O-])c3)n2)cc(OC)c1OC | 25.9% |
| Cc1ccc(CCNc2nc3c(S(=O)(=O)c4ccccc4)nnn3c3ccsc23)cc1 | -3.81% |
| COc1cccc(Cc2nc3ccccc3nc2SCC(=O)N2CCN(c3ccccc3)CC2)c1 | 10.2% |
| O=C(Cn1c(-c2cccs2)cc2cc(F)ccc21)N1CCN(c2cccc(Cl)c2)CC1 | 10.9% |
| CSc1ccc2c(c1)N(CCC1CCCCN1C)c1ccccc1S2 (centres undefined) | active: 98.1% |
| COc1ccc(OC)c(NC(=O)c2c(NCc3ccc(OC)c(OC)c3)sc3c2CCC3)c1 | 8.34% |
| CCOc1ccccc1NC(=O)Nc1cc(C(=O)NCc2ccc(C)cc2)ccc1N1CCCC1 | -2.99% |
| O=C(Nc1ccc(Br)cc1F)C(NS(=O)(=O)c1cccc2nsnc12)c1ccccc1 (centres undefined) | -2.37% |
| Cc1ccc(NC(=O)c2cc3c(-c4ccccc4)nn(-c4ccccc4)c3s2)cc1 | 17.8% |
| COc1ccc(NC(=O)Cn2c(=O)n(CC(=O)NCCc3ccccc3)c(=O)c3ccccc32)cc1 | -4.77% |
| COc1ccc(CNC(=O)c2cc3c(-c4ccccc4F)nn(C)c3s2)cc1 | 10.9% |
| CCc1ccc(NC(=S)NC2CC3CCCC(C2)N3Cc2ccccc2)cc1 (centres undefined) | active: 40.3% |
| CCc1ccc(NS(=O)(=O)c2ccc3[nH]cc(C(=O)NCc4ccc(C)cc4)c(=O)c3c2)cc1 | -0.447% |
| CCOc1ccc(-n2c(=O)c3c4c(sc3n(Cc3cccc(C)c3)c2=O)CCCC4)cc1 | -7.38% |
| Clc1ccc2nc(Nc3ccccc3Cl)nc(-c3ccccc3)c2c1 | -4.35% |
| Cc1nn(-c2ccccc2)c(C)c1C(=O)OCC(=O)N(C)C1CCS(=O)(=O)C1 (centres undefined) | active: 38.2% |
| O=C(C1CCCN1C(=O)c1cccs1)N1CCN(Cc2ccc3c(c2)OCO3)CC1 (centres undefined) | active: 36.6% |
| CCc1ccc(NCc2cc3cc4c(cc3n(CC(=O)Nc3ccccc3Cl)c2=O)OCO4)cc1 | -4.65% |

| Structure (SMILES) | inhibition |
| --- | --- |
| CCOCCCNC(=O)C1CCN(c2cc(C)nc3c(-c4ccc(Cl)cc4)c(C)nn23)CC1 | 13.5% |
| COc1ccc(N2CCN(C(=O)c3ccc4c(=O)n(CCc5ccc(OC)c(OC)c5)c(=O)[nH]c4c3)CC2)cc1 | -13.4% |
| O=S(=O)(c1ccc(Cl)cc1)N1CCCC(c2nc(-c3ccc(F)cc3)no2)C1 (centres undefined) | active: 51.5% |
| CCNC(=O)c1c(C)oc2ncn(C)c(=O)c12 | -1.29% |
| CCc1ccc(CNC(=O)CSc2cc(=O)n(CC)c3ccccc23)cc1 | -4.12% |
| Cc1nn(CCCC(=O)Nc2cc(C(F)(F)F)ccc2Cl)c(=O)c2c1sc1ccccc12 | 11.9% |
| Cc1cc(C)cc(N(C(=O)c2ccco2)C(C(=O)NC2CCCC2)c2ccncc2)c1 (centres undefined) | active: 36.6% |
| CCc1nn(CC(=O)N(CC)Cc2ccccc2)c(=O)c2cc3occc3n12 | -4.52% |
| COc1ccc(NC(=O)CN2C(=O)CCc3cc(S(=O)(=O)N4CCOCC4)ccc32)c(OC)c1 | 5.78% |
| CCOc1ccccc1NC(=O)Cn1c(=O)n(-c2ccccc2)c(=O)c2c1c1cc(C)ccc1n2C | 2.44% |
| CC(C)CCn1c(CN2CCN(c3cccc(Cl)c3)CC2)nc2c1c(=O)n(C)c(=O)n2C | active: 47% |
| CCN(C(=O)CSc1nnc(-c2cc3occc3n2C)n1-c1ccccc1C)c1cccc(C)c1 | 8.39% |
| COc1ccc(-c2cn3c(n2)sc2cc(C(=O)NCCCN4CCCCC4)ccc23)cc1 | 18.1% |
| COc1ccc(CN2CCN(c3ccccc3OC)CC2)cc1OC | active: 66% |
| O=C(CSc1nc(-c2ccccc2)c2ccccc2n1)Nc1ccc(F)cc1 | 1.9% |
| Cc1cc(C)c(S(=O)(=O)NCCc2cc3ccc(C)cc3[nH]c2=O)c(C)c1 | 17% |
| CC1=C(C(=O)N2CCCCC2)C(c2cccc(Cl)c2)n2c(nc3ccccc32)N1 (centres undefined) | 18.3% |
| CCOc1ccc(C(CC(=O)O)NC(=O)C(CC)c2ccccc2)cc1 (centres undefined) | active: 35.3% |
| O=C(Nc1cc(Cl)cc(Cl)c1)N1CCCN(Cc2ccccc2)CC1 | active: 86.6% |
| COc1ccc(-c2c(C#N)c(SCC(=O)Nc3ccc(Br)cc3)nc(C)c2C(=O)Nc2ccccc2)cc1 | 18.9% |
| O=C(CN(c1cc(C(F)(F)F)ccc1Cl)S(=O)(=O)c1ccccc1)NCCc1ccccc1 | -16.4% |
| COC(=O)c1ccccc1NC(=O)c1cc2c(s1)-c1ccccc1OC2 | -7.2% |
